Assay results reported in PMC7819943, “Rice protein-binding microarrays: a tool to detect cis-acting elements near promoter regions in rice”.
This is one part of the list.

target: T1, OsWOX13 (Oryza sativa, UniProt Q5QMM3 1-267); assay: protein-binding microarray (RPBM); PBS, 2% BSA, 51.3 ng/ul salmon testes DNA, 50 uM zinc acetate, 200 nM TF, 25 C, 1 h; high values mean tight binding; details: protein: recombinant; tags: N-terminal polyhistidine and DsRed monomer fusion (pET32a); label: CyDye5-dUTP incorporated in the synthesized complementary strand; 3' TTTTT single-stranded linker to array surface; dsDNA, one strand shown
T1 sequence: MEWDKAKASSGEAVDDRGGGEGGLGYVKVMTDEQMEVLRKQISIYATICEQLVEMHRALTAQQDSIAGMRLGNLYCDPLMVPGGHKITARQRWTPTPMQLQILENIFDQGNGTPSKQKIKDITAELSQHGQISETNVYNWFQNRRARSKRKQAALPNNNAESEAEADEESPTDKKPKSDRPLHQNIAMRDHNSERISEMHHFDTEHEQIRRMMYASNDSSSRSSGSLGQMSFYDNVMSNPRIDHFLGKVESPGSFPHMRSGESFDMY
Outline: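 Per-feature fluorescence intensity (arbitrary units), read on an Axon 4000B scanner, is the binding signal. Transcription factors carrying an N-terminal polyhistidine tag and DsRed fusion were expressed in E. coli BL21-CodonPlus and purified on Ni–NTA. A custom Agilent array, made double-stranded by primer extension with Cy5-dUTP and blocked with 2% BSA, was incubated with 200 nM protein in PBS, 2% BSA, salmon testes DNA and 50 µM zinc acetate at 25 °C for 1 h and then washed.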

Row | Sequence | binding signal
1 | AAATTGATTAGATTTACAGCTAACGGTTACTGTACATTGACGGAGTCACCTAGTGCAG | 34700 fluorescence intensity (a.u.)
2 | AAAGTTGACAGAGACGTCCTCTCTACTGTTCTGTGACCGTCGGAGTCACCTAGTGCAG | 15300 fluorescence intensity (a.u.)
3 | AGCGATTGGCTTAATTTCAAGTTAGTCTAAACCAAAAGATCGGAGTCACCTAGTGCAG | 15300 fluorescence intensity (a.u.)
4 | CCTTATGTGACACTATATTAATTAAGAGAGAGAGTGAAGACGGAGTCACCTAGTGCAG | 4280 fluorescence intensity (a.u.)
5 | CATTAATTCTAATCGACGGAGAGGAATTGGAAACGAAAATCGGAGTCACCTAGTGCAG | 3760 fluorescence intensity (a.u.)
6 | ATTTCGGTTGAAATTGAAGATGATGTGACTGAAAAGTTGTCGGAGTCACCTAGTGCAG | 5390 fluorescence intensity (a.u.)
7 | TGTGATTAGTTCTAATTTAATATAGCAAGAACTAGTGGATCGGAGTCACCTAGTGCAG | 53800 fluorescence intensity (a.u.)
8 | CATATGCAGACTCCAATTAATAAACATAAATTTGTCAGATCGGAGTCACCTAGTGCAG | 7780 fluorescence intensity (a.u.)
9 | AGTAGTAGAATTGATTAGTTTAAGCTGCAGGTTAATTAGCCGGAGTCACCTAGTGCAG | 19000 fluorescence intensity (a.u.)
10 | ATGTATTTGCAAATTGGAATTCTCTGTGCAACCTCGCAAGCGGAGTCACCTAGTGCAG | 3380 fluorescence intensity (a.u.)
11 | ACTTTGATGGCATTTTCAATCTTACCAAATTTTGATACAGCGGAGTCACCTAGTGCAG | 10500 fluorescence intensity (a.u.)
12 | GCTGAAATTATCTCGGTCATGGTAGGTCGATTGATGGGACCGGAGTCACCTAGTGCAG | 10000 fluorescence intensity (a.u.)
13 | AAATTCCGTATCAATCATCTCCCTCCCCAACCCTCCCCTTCGGAGTCACCTAGTGCAG | 7040 fluorescence intensity (a.u.)
14 | TTTAATTAGTTAAGATTAAAATTGAGTTTAAGATGTAAACCGGAGTCACCTAGTGCAG | 19000 fluorescence intensity (a.u.)
15 | ATAGATAATTTATTCAATTGGATTTATCAGTTTGAGAGGTCGGAGTCACCTAGTGCAG | 30500 fluorescence intensity (a.u.)
16 | AATGTTTTAATCACATTGATTAGCAACTAATTAATCTTAGCGGAGTCACCTAGTGCAG | 47100 fluorescence intensity (a.u.)
17 | AAAACAAGATTATGAATTTTAACGTGAAAATTTCAAGTTTCGGAGTCACCTAGTGCAG | 4070 fluorescence intensity (a.u.)
18 | AGTCAGATACCAATCAACACACCCAGGGTACGAGCTAGGCCGGAGTCACCTAGTGCAG | 10300 fluorescence intensity (a.u.)
19 | TGGTGATTGGGTGTTGTGCCGGTCATCTTCTCCCTCGCCGCGGAGTCACCTAGTGCAG | 37400 fluorescence intensity (a.u.)
20 | GGTTTCCGTGTCAACGTTTGACTGTCCGTCTTATATGATTCGGAGTCACCTAGTGCAG | 3450 fluorescence intensity (a.u.)
21 | TAACCAAATGATTAGGTCCCTGCTTAATAAAATAGTTAAGCGGAGTCACCTAGTGCAG | 8110 fluorescence intensity (a.u.)

Row | Sequence | binding signal
22 | TCCTTAATTACATAAGAATTATATAAAGGTCATGAACGAACGGAGTCACCTAGTGCAG | 16300 fluorescence intensity (a.u.)
23 | GGGGATTGAGATCCTATGACGTTACTGTTCACCGTAACTGCGGAGTCACCTAGTGCAG | 3720 fluorescence intensity (a.u.)
24 | ACAACATAAATTGTCGTCCTCATCTCCAATTCTCCACAGCCGGAGTCACCTAGTGCAG | 3300 fluorescence intensity (a.u.)
25 | ATAAAAGTAAATTTAAATAATAATCTAAATTTATTATTTTCGGAGTCACCTAGTGCAG | 4270 fluorescence intensity (a.u.)
26 | TAATAATTATAGTGACTTGAGTAGCACCATAATATTCTAACGGAGTCACCTAGTGCAG | 12400 fluorescence intensity (a.u.)
27 | TATAAATTATCAGTGTCATCACACAATGTATGTACATTGTCGGAGTCACCTAGTGCAG | 7480 fluorescence intensity (a.u.)
28 | TATAATTACGATATAACATATAATTACGATATAACTTGTACGGAGTCACCTAGTGCAG | 12400 fluorescence intensity (a.u.)
29 | TCACTAATCAATTTTATTATCATTCGCGGCCAGTTCACAGCGGAGTCACCTAGTGCAG | 20300 fluorescence intensity (a.u.)
30 | CAATTCTGAAATTGACAGGTTGAATTTGCTAATTGAGGTACGGAGTCACCTAGTGCAG | 43600 fluorescence intensity (a.u.)
31 | TTAAGGTAAAATTTGATTGGAATCAGCACGAGACTGTGCTCGGAGTCACCTAGTGCAG | 24000 fluorescence intensity (a.u.)
32 | AGGAGTACTTAATTAATCATAAGAAAATACGTCGCTCTATCGGAGTCACCTAGTGCAG | 6590 fluorescence intensity (a.u.)
33 | AATTAATTATAAATATTAAACGTAGACTATTAATAAAACCCGGAGTCACCTAGTGCAG | 16900 fluorescence intensity (a.u.)
34 | TATGATGATGGGAAGCATTTTGGAAGCATGCAGTGGTTTGCGGAGTCACCTAGTGCAG | 6030 fluorescence intensity (a.u.)
35 | GCGACAGATTATTTAACGGTGTAAACCTTTTAGAGTAGTGCGGAGTCACCTAGTGCAG | 3770 fluorescence intensity (a.u.)
36 | TTGATTAAATACAAAATTAATAGTCAAAGTTTTAAAAGTTCGGAGTCACCTAGTGCAG | 18200 fluorescence intensity (a.u.)
37 | CTAATCCATCGCAAAATTTGTACTAATCAAGTACTTCCACCGGAGTCACCTAGTGCAG | 3490 fluorescence intensity (a.u.)
38 | ACAAATTATACCAAAACATCCAGAACAACCACCTCTCAATCGGAGTCACCTAGTGCAG | 3700 fluorescence intensity (a.u.)
39 | TACTGTAGCACCACATTGTCAATCATGGCGCAATTATGCTCGGAGTCACCTAGTGCAG | 6910 fluorescence intensity (a.u.)
40 | TGGCACAAGTGATTGGGACGTTGCCCTATCAATCGCGGCACGGAGTCACCTAGTGCAG | 15900 fluorescence intensity (a.u.)
41 | GATCATTTCAGTGATTAATTTAATTGGAAAAGTAATTCAACGGAGTCACCTAGTGCAG | 6700 fluorescence intensity (a.u.)
42 | TCCATGTCATTTTCTCCCATCACAGTAGTGTGAATTGTGACGGAGTCACCTAGTGCAG | 4180 fluorescence intensity (a.u.)
